Laboratory results reported in the BET-seq Pho4 binding data (Le et al. 2018).
This is one part of the list. These are noisy estimates, calculated here from bound and input reads.

The sequences below were run against T1, Pho4 (S. cerevisiae) (UniProt P07270) (assay: relative binding free energy (BET-seq); higher = weaker binding). Conditions: reference: library average.
T1 sequence: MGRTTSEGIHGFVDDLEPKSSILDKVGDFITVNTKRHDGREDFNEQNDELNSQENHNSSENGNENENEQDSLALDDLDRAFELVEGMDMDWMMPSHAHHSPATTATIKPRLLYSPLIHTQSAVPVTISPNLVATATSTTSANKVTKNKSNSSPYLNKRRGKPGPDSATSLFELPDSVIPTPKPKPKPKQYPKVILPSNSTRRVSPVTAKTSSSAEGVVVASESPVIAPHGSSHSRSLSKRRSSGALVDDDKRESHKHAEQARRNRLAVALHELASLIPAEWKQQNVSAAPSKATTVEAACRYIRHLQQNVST

Sequence | relative binding free energy [kcal/mol]
GCGTTCACGTGTATTG | 0.2
GTATGCACGTGTTCAT | 0
GGCAGCACGTGTATGT | -0.01
TATTTCACGTGCTGTT | 0.21
ATTTCCACGTGGTAAG | 0.2
TGGTGCACGTGTTGCG | -0.03
CTCGTCACGTGCTGGT | 0.08
GGTTTCACGTGATGTG | 0.41
GTTCGCACGTGATGGC | 0.1
GGCAGCACGTGCGGGA | -0.14
TGCATCACGTGCGTGT | 0.07
CGGTTCACGTGATAAT | 0.43
TGTGGCACGTGCAATA | -0.14
TAACGCACGTGTGTTA | -0.08
ACAGTCACGTGGGTTT | -0.1
TTAAGCACGTGCGGAT | -0.01
ATATTCACGTGTATAG | 0.24
TAGTACACGTGTTTAC | 0.19
GATTTCACGTGATGGA | 0.37
GAGATCACGTGGCAGG | 0.23
TAGGCCACGTGGATGG | 0.04
GTAGACACGTGGGGTA | -0.04
CGGTTCACGTGATGGA | 0.29
TCCGGCACGTGGTGGG | -0.16
TAAGTCACGTGTCGTG | -0.04
GGGTACACGTGGAGGT | 0.01

Sequence | relative binding free energy [kcal/mol]
GAGAGCACGTGATAGG | -0.01
AAGTACACGTGTTTAG | 0.2
GGTCGCACGTGAAGTT | 0.35
GGGGTCACGTGCATAT | 0.05
TTGATCACGTGGGTAG | 0.05
CTATTCACGTGGATAG | 0.26
TTAGACACGTGAGTTG | 0.25
CTGGGCACGTGAGTAT | 0.13
ACAGTCACGTGGGTAT | -0.05
CGGTGCACGTGGTAGG | -0.02
CCGGTCACGTGGGTTA | 0.06
GTTGACACGTGAAGGA | 0.26
ATATTCACGTGGCATT | 0.2
TTGTGCACGTGACGAG | 0.06
CTAAACACGTGTTGTT | -0.06
GGTGTCACGTGAGGCC | 0.25
GGAGACACGTGGTCTG | -0.05
TTTGTCACGTGATACG | 0.16
GGGTGCACGTGCTTAG | -0.18
ATTTACACGTGGTTCA | 0.04
ATTCGCACGTGGGGAT | -0.22
TCGGTCACGTGGAGTA | -0.02
AGTTCCACGTGATGGA | 0.21
ATTGCCACGTGTGGCG | 0.04
TAGATCACGTGATTCG | 0.4
ATAAGCACGTGGTTGG | -0.27

Sequence | relative binding free energy [kcal/mol]
GTATGCACGTGAGAAT | 0.26
AGGTGCACGTGGAATG | 0.01
GGTTTCACGTGATTCG | 0.31
ATTTACACGTGTAAGG | 0.15
CGTGACACGTGTATTT | 0.14
TGACACACGTGAATTT | 0.38
ACAGTCACGTGAGGGG | 0.23
ATATGCACGTGATAAG | 0.02
AATTGCACGTGGTTAT | 0.06
CAGAGCACGTGTGTGG | -0.1
TAATTCACGTGTTATC | 0.25
TCAGGCACGTGGGTTG | -0.04
CAGTTCACGTGGTAGG | 0.24
TGTGTCACGTGATAGC | 0.26
TGGTTCACGTGCGTTA | 0.26
TAGGCCACGTGGGTGG | -0.4
GCTTTCACGTGCAGGG | 0.2
CGGATCACGTGGTAGG | 0.19
CTGTACACGTGTTTGA | 0.06
TAATACACGTGTGAAG | 0.22
ATGTGCACGTGCGGGT | -0.11
CGTGTCACGTGTGATT | 0.14
AATTACACGTGAATTT | 0.41
CCATTCACGTGGGTTT | 0.17
TAATTCACGTGTAGTA | 0.24
GATTACACGTGGTAGC | 0.14

Sequence | relative binding free energy [kcal/mol]
TTAGTCACGTGCGGCT | 0.09
TTGATCACGTGGGCTC | 0.16
TGAAGCACGTGATTGT | 0.22
ATGGTCACGTGATTTT | 0.33
AAGGGCACGTGGTTAG | -0.09
GGGGGCACGTGCAGTG | -0.17
TGAGGCACGTGGAATG | -0.06
TGTTTCACGTGGGCGG | 0.2
TTAGTCACGTGCGCGG | -0.12
AAGGTCACGTGCGTAG | 0.03
TTGGACACGTGGTTAT | 0.09
GATTGCACGTGTTATT | 0.02
AGAGCCACGTGTGTTG | 0.05
CTAATCACGTGGTGGC | 0.15
TTGTTCACGTGTCGTA | 0.28
GACAACACGTGGGGGT | -0.04
GGAAGCACGTGTCGTT | 0
TCAATCACGTGGAGTG | 0.26
CGATGCACGTGGGATG | -0.1
GGGGACACGTGGGCTT | -0.04
CGATGCACGTGGTGTT | -0.14
TGAAGCACGTGTTAGT | -0.1
GGGTGCACGTGTGGGT | 0.06
ATCGGCACGTGATAGG | 0.01
ATGAACACGTGTTTAT | -0.01
TGGGGCACGTGGGACA | -0.19

Sequence | relative binding free energy [kcal/mol]
CAGTACACGTGAAGTG | 0.38
GGTGGCACGTGTAGAG | -0.07
GAGAGCACGTGGGATG | -0.16
GGTTTCACGTGTGTGG | 0.36
CTTATCACGTGGTTTT | 0.15
AGAGGCACGTGGGGTG | -0.25
CGGGGCACGTGACGAG | 0.06
GTAAGCACGTGTTATA | -0.06
CTTTCCACGTGATGGT | 0.36
TATATCACGTGGCTTT | 0.12
GTAGCCACGTGATGGG | 0.15
CGTGTCACGTGTGGAT | -0.02
AGATTCACGTGGGGTA | 0.23
ATTTACACGTGTCTGT | 0.02
GTTCTCACGTGGTGGG | 0.25
GATGGCACGTGCGGGC | -0.08
TGTGCCACGTGTTGTG | -0.1
GGTGCCACGTGTAGGC | 0
TAGTTCACGTGAAAGT | 0.38
TAAGCCACGTGGAGTT | -0.05
TCGGGCACGTGCGTAT | -0.09
AGGAGCACGTGACGGT | 0.01
GAGTGCACGTGTTGAG | 0.13
TTACTCACGTGGGCTT | 0.21
GACGGCACGTGGGTCG | -0.19
TTGTACACGTGGTTAG | 0.02

Sequence | relative binding free energy [kcal/mol]
GGGTGCACGTGCCGGG | -0.03
CTGCGCACGTGTTAGG | -0.17
GGCAGCACGTGGAAGT | 0.14
TAGCGCACGTGAGGAG | 0.03
GGAGGCACGTGTTAAG | -0.08
TTAGTCACGTGCATGT | 0.13
GATTGCACGTGTAATT | 0.22
TAATTCACGTGTGTCA | 0.17
GGGTTCACGTGTGGTA | 0.33
TGGATCACGTGAATAT | 0.4
AGAGTCACGTGGTCAG | -0.03
ATGATCACGTGTCGGT | 0.2
TATTTCACGTGGTCAT | 0.24
TAGTTCACGTGTATTT | 0.17
GTGTACACGTGAGGCG | 0.4
TGTGGCACGTGACATT | -0.08
GGATACACGTGCGAGG | 0.14
GATTGCACGTGGGAAA | 0.15
CGGGTCACGTGAGTTA | 0.22
ATCCGCACGTGTGTTT | -0.05
ATAGTCACGTGGGCTA | -0.06
AATGTCACGTGTTAGA | 0.17
CTGGTCACGTGTAATA | 0.19
GGCGTCACGTGAATAG | 0.42
ATCGTCACGTGGGGGT | -0.06
TAGTGCACGTGGGGCG | -0.19

Sequence | relative binding free energy [kcal/mol]
TTGGACACGTGGGGCC | -0.07
TTTCACACGTGAATGT | 0.31
GAGGGCACGTGAAGCT | 0.15
AGAGGCACGTGCTAGG | -0.13
AGGTGCACGTGGCAGT | -0.3
TTTGGCACGTGTCAGA | -0.15
TATTCCACGTGTTTTG | -0.11
GTGGTCACGTGGCATT | -0.01
TGCAGCACGTGTGCGG | -0.22
GTGGGCACGTGTTTTT | 0.05
TTGACCACGTGATGTG | 0
ATTGTCACGTGTTTGC | 0.08
GTGAGCACGTGGGACT | -0.16
GATTTCACGTGGTGGT | 0.33
ACGGTCACGTGTTGCG | 0.17
CGGTTCACGTGTGGCT | 0.23
AGGTCCACGTGGGCTG | -0.2
ATGGGCACGTGTCATG | -0.18
TGCGGCACGTGGGTAT | -0.2
CGTTGCACGTGCGGGA | -0.06
GGTCCCACGTGAGGGG | 0.22
GGTGCCACGTGGGTCT | -0.18
GTCAACACGTGGCGGG | -0.05
TAACACACGTGGGTTG | -0.11
TGTGTCACGTGCTGTC | 0.09
TATGCCACGTGGGGTT | -0.19

Sequence | relative binding free energy [kcal/mol]
TAGTTCACGTGGTATC | 0.16
AGGTACACGTGTTTGT | 0.01
AGCGGCACGTGGGGGC | -0.27
ACAGGCACGTGGAGTA | -0.08
TGGCGCACGTGCCGGG | -0.2
AGGCACACGTGAGGTA | 0.31
ACGTGCACGTGTTCGG | -0.15
GTGTACACGTGATGGC | 0.27
AGTAACACGTGGATTG | -0.02
GGGAGCACGTGTACGG | -0.08
GAAGTCACGTGAGGTT | 0.19
TTTGTCACGTGCTGAC | 0.16
TGGCGCACGTGTAAGT | -0.08
GATTACACGTGTTGTC | 0.22
AAACGCACGTGAGTGG | 0
GGTGGCACGTGACGAT | 0.01
CTCTTCACGTGGGTGG | 0.08
GAGGTCACGTGCTTTT | 0.06
CTGGGCACGTGAGGCA | 0.03
TGATGCACGTGCTGTT | -0.11
TTGTGCACGTGATCTG | 0.03
TTCAACACGTGATTTG | 0.21
AAGGGCACGTGAATGT | 0.31
GTATACACGTGATATT | 0.19
CGTGACACGTGGGGTC | -0.14
TGTCGCACGTGGGTAA | -0.06

Sequence | relative binding free energy [kcal/mol]
ATGGTCACGTGCATAA | 0.19
TCAGACACGTGTTTTA | 0.24
TTATACACGTGAGGTC | 0.41
TGTTTCACGTGGATCG | 0.4
ATTAACACGTGTTGCA | 0.03
GGGGGCACGTGTAAAC | 0.07
GCTGGCACGTGGGCAG | -0.25
ACGTTCACGTGTGATG | 0.24
TGAACCACGTGCGGGG | 0.06
TCCGTCACGTGGGTGT | -0.07
TTTCGCACGTGGGACG | -0.14
TGGGACACGTGAGATA | 0.22
TTATACACGTGGATGG | 0.09
TTATCCACGTGGGAGG | -0.04
ATGTGCACGTGATGGA | 0.15
GATTTCACGTGGGTAG | 0.13
GTATTCACGTGTATCG | 0.11
TTCTTCACGTGATTTC | 0.44
GTCTGCACGTGAGGGG | 0.29
ATCGTCACGTGAAGGT | 0.26
GAGAGCACGTGTGGCG | -0.06
AGTATCACGTGGCGGA | 0.13
